According to the RNAGym collection of RNA variant scans (doi:10.1093/nar/gkz1192):
The source gives no read counts; variants with many changes may rest on few reads.

B1: CPEB3 Ribozyme (parent)
chain: UAACAGGGGGCCACAGCAGAAGCGUUCACGUCGCAGCCCCUGUCAGAUUCUGGUGAAUCUGCGAAUUCUGCUGUAUAUCUC

Variants of: B1
Assay: self-cleavage, relative activity (ratio to wild type); higher = more cleavage; in vitro, sequencing
Outline: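 Libraries of CPEB3 self-cleaving ribozyme mutants came from rounds of error-prone PCR and carried barcodes, which DNA sequencing matched to variants. In vitro transcription used T7 RNA polymerase at 37°C for 5 hours, with a further 15 min in DNase I before EDTA stopped the reaction; the ribozymes cleaved during both steps. The RNA was reverse transcribed with template switching and sequenced on Illumina. Relative activity is the cleaved/total read fraction of a variant divided by that of the unmutated ribozyme, averaged over three batches with at least 5 reads.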

Variant	self-cleavage
A5G A18G A21G U26C U67A U78C	0.51
A5G C12U C71A	0.15
A5G A21G C44U U54A	0.52
A5G U26C U51A U80A	0.29
A5G U26C C39U A45U A64G	0.12
A5G A20G C32U U66C	0.13
A5G A28G U54C G55U	0.32
A5G A15G U72C U80A	0.67
A5G A20G A21G U41A U54A U60C U67C	0.12
A5G A13U A20G U31C U41A	0.12
A5G A18G A20G G36U U43C U76C	0.28
A5G C50U U76A	0.61
A5G A21G C29U A77G U78C	0.07
A5G U31A A56G A65G	0.33
A5G C23A U25C U51C U60A U66C U80C	0.09
A5G G10U U31A U51C U74A	0.24
A5G A13C C40U A47C A56G U66C	0.11
A5G G9A U48C	0.37
A5G A13G G24A A45G U74C	0.47
A5G A35C U74C A77G	0.83
A5G A47G U78C	0.53
A5G U25C U60A	0.22
A5G A15G U25A U54C U67G	0.31
A5G A47G U67A U76G	0.06

Variant	self-cleavage
A5G G7U C12U A13G U72C	0.05
A5G C12G A13G A45U U69A U80C	0.34
A5G A35G G36A	0.85
A5G C12U A18G A28U	0.22
A5G U25C A65C G73A	0.47
A5G A18U A35G A64C G73U	0.29
A5G A21G A45U U48C	0.07
A5G G19U A20G U25C U41A U80C	0.07
A5G U26C U51C U76C	0.42
A5G C17U U26A U51A A64G	0.52
A5G A45U C62U U76C	0.12
A5G A15G A28G U69A	0.46
A5G A15U U26A U69C C81A	0.09
A5G G10A C62U A64U U72C U80C	0.05
A5G C11U C40G A57U A65G	0.26
A5G A20G U43C U54A U67C	0.31
A5G A13G A28C	0.39
A5G C11G C39U	0.25
A5G A15G A35G	0.7
A5G C32U U41A U43A	0.38
A5G A20G U31A A35U A65C	0.25
A5G C14A G33A A35G U41A U51A	0.06
A5G A20G U26A	0.42
A5G G9A A45U C62A U76C	0.07

Variant	self-cleavage
A5G A15G A21G	0.5
A5G A13G U25C A35U C71G U72C	0.08
A5G C38G A56G	0.52
A5G A13G A35U U41G A56U U72A	0.16
A5G U26C A45G A47U U58C U80A	0.1
A5G A28U A45C	0.28
A5G A21G A56G	0.42
A5G G9A U25C U31C U51A	0.1
A5G U26A U51G U54G A75U	0.1
A5G A18G U54A A56G U58C	0.11
A5G A20G A75G	0.6
A5G G6C A13G A18C U80C	0.03
A5G A15G U66A U74C A75G	0.29
A5G A18U C37A A64G U80C	0.07
A5G A35G U67G U76C A77G	0.98
A5G A45U A56U U76C	0.11
A5G U26G U51C A57U G61A U80A	0.05
A5G A13G G24A U43A A65U	0.26
A5G C23U U25C A35U A57U U58A	0.26
A5G A75G U78C	0.22
A5G A35U U41G U67C A75U	0.27
A5G A15U A18U	0.4
A5G G19U A28G A77C	0.3
A5G C23G U43C U54C U72A	0.05

Variant	self-cleavage
A5G A18G A28G U69C	0.26
A5G A45U U69A U80C	0.44
A5G U25C U26C U43A A64U	0.56
A5G A21G U41C U54C	0.4
A5G A15U A20G	0.45
A5G A28U C32A U43C U78C	0.05
A5G U26C U60A	0.26
A5G U26C U60C	0.31
A5G C34U U54A U60C U69C	0.22
A5G A15U C23U U69C U78C	0.1
A5G A13G A15U U78C U80C	0.2
A5G U25C A47G G52A	0.48
A5G A13U A18U A28U A35G G70A U72C	0.13
A5G U31A U80A	0.5
A5G U31A C40U	0.33
A5G C12U C14G	0.89
A5G G6A C38U U54C U76C	0.19
A5G A57G U60A U67C A77U	0.11
A5G A13G C17U A20G	0.35
A5G G9A A45G U69C	0.08
A5G C12U C38U U67C	0.22
A5G C12U C23U A45U U60A U67C	0.08
A5G G52C U54A	0.91
A5G A21G U26C A56U	0.28

Variant	self-cleavage
A5G A21G C37U U58C	0.52
A5G A28U U60C	0.1
A5G C40U U48C U49C U74C U80C	0.07
A5G A20U U49C U60C	0.22
A5G A13U C29U U43A U67G C81U	0.07
A5G A13U G19A U25C G52A U72C	0.13
A5G U25C U49C U51C U58C	0.33
A5G C34A A45G A77G	0.1
A5G C32U U43A U80C	0.11
A5G C23A U43G U49C U60G U80C	0.09
A5G A35G U67A A77G	0.97
A5G A13U A15U	0.58
A5G A13U A28U U49C	0.05
A5G G8A U25C U58C U60G U67C	0.07
A5G C23A U26A A75U	0.26
A5G C27A U43C U60C	0.14
A5G C11U A45G U60A	0.07
A5G G8A C32U U48C A65U U78C	0.05
A5G A21G U43A U69G A75U	0.08
A5G A20U A77G	0.34
A5G A18G U76A	0.34
A5G G24A A56U	0.06
A5G A45G U60C U66C	0.12
A5G A15U U49C U67A	0.07

Variant	self-cleavage
A5G G19U C38U U49C U60C	0.31
A5G A20G U43C U48C	0.13
A5G G8U A13U A47C U51A C59A A75U	0.07
A5G A18U U25C U41C U43C U67C U72C	0
A5G A15U C17G A28U A35G A64G	0.09
A5G A35U A57G	0.16
A5G A21G U41C A45G U67C U80C	0.02
A5G A15U A65C	0.5
A5G C11A C62U A64U	0.16
A5G A21G C40U A57G U60C A64G	0.29
A5G A35G A65U	0.53
A5G C14U U54A A57G U60C U69C U74C	0
A5G C27G C34G C38U A45G A56U U69A	0.1
A5G A15U G30C A35U	0.32
A5G A15U U41A A57G U67A	0.12
A5G A45G A56G A57G U69A	0.08
A5G G10A U60A A65G U66C	0.1
A5G A35U U74C	0.4
A5G A21G A64G C79A	0.47
A5G U25C U26C G36C U43A A77G	0.06
A5G C14G A15C U60C	0.06
A5G A20U U26C G30A	0.4
A5G C23A U54G U66C	0.3
A5G A21U A45C U69C	0.05

Variant	self-cleavage
A5G A13G A45G U51A	0.49
A5G C14A G30A	0.34
A5G A20G U41A A56G C62A	0.07
A5G U26A A45G U80A	0.33
A5G A56U U69A	0.39
A5G C68G U74A	0.14
A5G C39G U76G	0.39
A5G G10C C11U A18U U25A A45G U58C	0.08
A5G G16A A21G	0.34
A5G A45U U60C A65G	0.17
A5G A18C U48C U51C U67C	0.21
A5G A13G U54C A65U U67C A77U U80C	0.08
A5G A13U U25C U51A U66C	0.18
A5G A13U U51A U67A U72A U74C	0.26
A5G A47U A65U	0.22
A5G A21G C34G G36A A56G	0.07
A5G A28G U31C U41A	0.09
A5G U25C U51A	0.09
A5G A18G C38U C39G U51C U58A	0.02
A5G C23A A57G	0.1
A5G G10A C27U	0.43
A5G A47U G53A A56U U60C U72C	0.09
A5G G9A G22U U26C A45G U54G G73A	0.06
